From the supplement of paper PMC8728848
The list shows a part of the results.

Tests used:
Assay in all cases: glycan array binding signal (z-score within array); higher = stronger binding
Conditions in all cases: glycan notation: IUPAC condensed, linker removed
[1] = target: Glc(a1-4)Glc(a1-4)Glc(a1-4)Glc
Outline: (§1)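 Negative Z-scores can be read as non-binding. The Z-score is calculated within each array and then averaged across arrays of one protein sequence at different concentrations or buffers and across linkers. Arrays, 3228 in all, were curated from the Consortium for Functional Glycomics database and kept only where the protein sequence was available.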

Glc(a1-6)Glc(a1-6)Glc = target: Glc(a1-6)Glc(a1-6)Glc
Outline: as §1

[2] = target: Glc(a1-6)Glc(a1-6)Glc(a1-6)Glc
Outline: as §1

Glc(b1-4)Glc = target: Glc(b1-4)Glc
Outline: as §1

Glc(b1-6)Glc = target: Glc(b1-6)Glc
Outline: as §1

GlcA(b1-3)Gal = target: GlcA(b1-3)Gal
Outline: as §1

GlcA(b1-3)GlcNAc = target: GlcA(b1-3)GlcNAc
Outline: as §1

GlcA(b1-6)Gal = target: GlcA(b1-6)Gal
Outline: as §1

[3] = target: GlcA3S(b1-3)Gal(b1-4)GlcNAc(b1-2)Man
Outline: as §1

[4] = target: GlcA3S(b1-3)Gal(b1-4)GlcNAc(b1-3)Gal(b1-4)Glc
Outline: as §1

[5] = target: GlcNAc(a1-3)Gal(b1-4)GlcNAc
Outline: as §1

[6] = target: GlcNAc(a1-4)Gal(b1-3)GlcNAc
Outline: as §1

[7] = target: GlcNAc(a1-4)Gal(b1-4)GalNAc
Outline: as §1

[8] = target: GlcNAc(a1-4)Gal(b1-4)GlcNAc
Outline: as §1

[9] = target: GlcNAc(a1-4)Gal(b1-4)GlcNAc(b1-3)Gal(b1-4)Glc
Outline: as §1

[10] = target: GlcNAc(a1-4)Gal(b1-4)GlcNAc(b1-3)Gal(b1-4)GlcNAc
Outline: as §1

[11] = target: GlcNAc(a1-4)Gal(b1-4)GlcNAc(b1-3)Gal(b1-4)GlcNAc(b1-3)Gal(b1-4)GlcNAc
Outline: as §1

[12] = target: GlcNAc(a1-4)Gal(b1-4)GlcNAc(b1-3)Gal(b1-4)[Fuc(a1-3)]GlcNAc(b1-3)Gal(b1-4)[Fuc(a1-3)]GlcNAc
Outline: as §1

[13] = target: GlcNAc(a1-6)Gal(b1-4)GlcNAc
Outline: as §1

[14] = target: GlcNAc(b1-2)Gal(b1-3)GalNAc
Outline: as §1

[15] = target: GlcNAc(b1-2)Gal(b1-3)GlcNAc
Outline: as §1

[16] = target: GlcNAc(b1-2)Man(a1-3)[GlcNAc(b1-2)Man(a1-6)]Man(b1-4)GlcNAc(b1-4)GlcNAc
Outline: as §1

[17] = target: GlcNAc(b1-2)Man(a1-3)[GlcNAc(b1-2)Man(a1-6)]Man(b1-4)GlcNAc(b1-4)[Fuc(a1-6)]GlcNAc
Outline: as §1

[18] = target: GlcNAc(b1-2)Man(a1-3)[GlcNAc(b1-4)][GlcNAc(b1-2)Man(a1-6)]Man(b1-4)GlcNAc(b1-4)GlcNAc
Outline: as §1

[19] = target: GlcNAc(b1-2)Man(a1-3)[GlcNAc(b1-4)][GlcNAc(b1-2)Man(a1-6)]Man(b1-4)GlcNAc(b1-4)[Fuc(a1-6)]GlcNAc
Outline: as §1

[20] = target: GlcNAc(b1-2)[GlcNAc(b1-4)]Man(a1-3)[GlcNAc(b1-2)Man(a1-6)]Man(b1-4)GlcNAc(b1-4)GlcNAc
Outline: as §1

[21] = target: GlcNAc(b1-2)[GlcNAc(b1-4)]Man(a1-3)[GlcNAc(b1-4)][GlcNAc(b1-2)Man(a1-6)]Man(b1-4)GlcNAc(b1-4)GlcNAc
Outline: as §1

[22] = target: GlcNAc(b1-2)[GlcNAc(b1-4)]Man(a1-3)[GlcNAc(b1-4)][GlcNAc(b1-2)[GlcNAc(b1-6)]Man(a1-6)]Man(b1-4)GlcNAc(b1-4)GlcNAc
Outline: as §1

[23] = target: GlcNAc(b1-2)[GlcNAc(b1-4)]Man(a1-3)[GlcNAc(b1-4)][GlcNAc(b1-2)[GlcNAc(b1-6)]Man(a1-6)]Man(b1-4)GlcNAc(b1-4)[Fuc(a1-6)]GlcNAc
Outline: as §1

[24] = target: GlcNAc(b1-2)[GlcNAc(b1-6)]Man(a1-6)[GlcNAc(b1-2)Man(a1-3)]Man(b1-4)GlcNAc(b1-4)GlcNAc
Outline: as §1

[25] = target: GlcNAc(b1-2)[GlcNAc(b1-6)]Man(a1-6)[GlcNAc(b1-2)Man(a1-3)]Man(b1-4)GlcNAc(b1-4)[Fuc(a1-6)]GlcNAc
Outline: as §1

[26] = target: GlcNAc(b1-2)[GlcNAc(b1-6)]Man(a1-6)[GlcNAc(b1-4)][GlcNAc(b1-2)Man(a1-3)]Man(b1-4)GlcNAc(b1-4)GlcNAc
Outline: as §1

GlcNAc(b1-3)Fuc = target: GlcNAc(b1-3)Fuc
Outline: as §1

GlcNAc(b1-3)Gal = target: GlcNAc(b1-3)Gal
Outline: as §1

[27] = target: GlcNAc(b1-3)Gal(b1-3)GalNAc
Outline: as §1

GlcNAc(b1-3)Gal(b1-4)Glc = target: GlcNAc(b1-3)Gal(b1-4)Glc
Outline: as §1

[28] = target: GlcNAc(b1-3)Gal(b1-4)GlcNAc
Outline: as §1

[29] = target: GlcNAc(b1-3)Gal(b1-4)GlcNAc(b1-2)Man(a1-3)[GlcNAc(b1-3)Gal(b1-4)GlcNAc(b1-2)Man(a1-6)]Man(b1-4)GlcNAc(b1-4)GlcNAc
Outline: as §1

B1: Epa15 (Candida glabrata) (protein)
chain: MGSSHHHHHHSSGLVPRGSHMASDPTTFPLGCSPEFTKTKKGLSMELYRYDYLPPGSYPCWDSAYLNPSYPRTGYKAKKLIATVDGVSGDINFKFNPKFGCKAIPDYLPSNFNYHEPITITNFTMILYGYFMPKTTAFHTFYVTADDLLFMNFGAGNAFDCCRREETADKFGNYAAYSVWGKKSLKNELTVYLHTGVYYPIRLFYNNRDYIAQLDIRFKTEHSNAIITNFTDYFYSVDDSSLGCPGLI
[1]
  glycan array binding signal (z-score): -0.485
Glc(a1-6)Glc(a1-6)Glc
  glycan array binding signal (z-score): -0.471
[2]
  glycan array binding signal (z-score): -0.403
Glc(b1-4)Glc
  glycan array binding signal (z-score): -0.408
Glc(b1-6)Glc
  glycan array binding signal (z-score): -0.464
GlcA(b1-3)Gal
  glycan array binding signal (z-score): -0.333
GlcA(b1-3)GlcNAc
  glycan array binding signal (z-score): -0.315
GlcA(b1-6)Gal
  glycan array binding signal (z-score): 0.801
[3]
  glycan array binding signal (z-score): -0.474
[4]
  glycan array binding signal (z-score): -0.548
[5]
  glycan array binding signal (z-score): -0.491
[6]
  glycan array binding signal (z-score): -0.44
[7]
  glycan array binding signal (z-score): -0.429
[8]
  glycan array binding signal (z-score): -0.341
[9]
  glycan array binding signal (z-score): -0.392
[10]
  glycan array binding signal (z-score): -0.489
[11]
  glycan array binding signal (z-score): -0.452
[12]
  glycan array binding signal (z-score): 0.9
[13]
  glycan array binding signal (z-score): 0.881
[14]
  glycan array binding signal (z-score): -0.411
[15]
  glycan array binding signal (z-score): -0.273
[16]
  glycan array binding signal (z-score): -0.441
[17]
  glycan array binding signal (z-score): -0.322
[18]
  glycan array binding signal (z-score): -0.571
[19]
  glycan array binding signal (z-score): -0.557
[20]
  glycan array binding signal (z-score): -0.597
[21]
  glycan array binding signal (z-score): -0.577
[22]
  glycan array binding signal (z-score): -0.593
[23]
  glycan array binding signal (z-score): -0.367
[24]
  glycan array binding signal (z-score): -0.463
[25]
  glycan array binding signal (z-score): -0.396
[26]
  glycan array binding signal (z-score): -0.437
GlcNAc(b1-3)Fuc
  glycan array binding signal (z-score): -0.548
GlcNAc(b1-3)Gal
  glycan array binding signal (z-score): -0.409
[27]
  glycan array binding signal (z-score): -0.444
GlcNAc(b1-3)Gal(b1-4)Glc
  glycan array binding signal (z-score): -0.298
[28]
  glycan array binding signal (z-score): -0.4
[29]
  glycan array binding signal (z-score): -0.286
